Assay results reported in the supplement of paper PMC10986608.
This is one part of the list. Many values rest on one well or one pass, so single values are uncertain.

System: Candida albicans DPL-15
Assay: growth (OD600) after compound treatment (apparently relative to screen median) (relative growth (fraction; screen median 1.02)); DPL-15 is a caspofungin-resistant clinical isolate; higher = more fungal growth (less antifungal activity)
Conditions: 25 µM; RPMI 1640; 48 h; 30 °C

SMILES | growth
Cc1ccc(C2C3=C(C(=O)N2c2ccccc2)N(C)CCN=C3CC(C)C)cc1 (configuration not stated) | 0.949
COc1ccc([C@@]23Oc4cc(OC)cc(OC)c4[C@]2(O)[C@H](O)[C@H](C(=O)NOCc2ccccc2)[C@H]3c2ccccc2)cc1 | 1.2
O=C1NC(c2ccc3c(c2)OCO3)c2c1nn(-c1ccc(OC(F)(F)F)cc1)c2-c1ccccc1 (configuration not stated) | 0.862
O=C(/C=C/c1ccccc1)N1CCC[C@H]1CO | 1.06
C=CCN1C(=O)C2=C(C(CC(C)C)=NCCN2C)C1c1ccc(Br)cc1 (configuration not stated) | 0.835
CO[C@@H]1[C@H](O)CC[C@]2(O)CN(Cc3ccco3)[C@](C)([C@H](O)CC=C(C)C)[C@@H]12 | 1.08
CO[C@@H]1[C@H](O)CC[C@]2(O)CN(Cc3ccc4c(c3)OCO4)[C@@H](CC=C(C)C)[C@](C)(O)[C@@H]12 | 1.1
COc1ccc(-c2cnn3c(N)c(-c4ccc(F)cc4)cnc23)cc1 | 1.09
Cc1nn(-c2ccccc2)c2c1C(c1ccc(F)cc1)NC2=O (configuration not stated) | 1.1
CCCCCN(C(=O)OC(C)(C)C)S(=O)(=O)Nc1ccc(C(C)(C)C)cc1 | 1.04
CC(C)=CCc1cc(OCC(=O)NS(=O)(=O)OCCOCc2ccccc2)cc2oc3cccc(O)c3c(=O)c12 | 0.955
COc1ccccc1Cn1nc(C(C)C)c2c1C(=O)NC2c1ccc(Br)cc1 (configuration not stated) | 0.982
C[C@H]1C[C@@H](C)O[C@@]2(C1)C(=O)Nc1ccccc12 | 0.881
C=CCC1=C(OC)C(CC=C)(CC=C(C)C)C(=O)C(C(=O)c2ccccc2)=C1O (configuration not stated) | 1.42
CO[C@@H]1[C@H](O)CC[C@]2(O)CN(c3ccc4ncoc4c3)[C@@H](CC=C(C)C)[C@](C)(O)[C@@H]12 | 0.997
CCCCCOS(=O)(=O)NC(C)(C)C | 1.14
COc1ccc2c(c1)[C@@H](NS(=O)(=O)c1ccc(C)cc1)[C@H](C)[C@H]2c1ccccc1 | 1.1
COCCN1Cc2cc(C(=O)OC)c3c(c2C1=O)c1cc(F)ccc1n3S(=O)(=O)c1cccc(C)c1 | 0.866
C=CC[C@@H]1C[C@@]23C[C@H](CC=C)C(C)(C)[C@@](CC=C)(C(=O)C(C(=O)c4ccccc4)=C2OC1(C)C)C3=O | 0.991
CS(=O)(=O)Oc1c(C[C@@]23CCCCC2=Nc2c(F)cccc23)occc1=O | 1.06
CC(C)C1=NCC(C)(C)NC2=C1C(c1ccc(F)cc1)NC2=O (configuration not stated) | 0.962
COC(=O)[C@@]12Oc3cccc(O)c3C(=O)C1=C(OC)C[C@H](C)[C@H]2O | 1.12
Cc1ccc(C2NC(=O)c3nn(-c4ccccc4)c(-c4ccccc4)c32)cc1 (configuration not stated) | 0.921
CC(C)Cc1n[nH]c2c1C(c1ccc(F)cc1)N(c1ccc3c(c1)OC(F)(F)O3)C2=O (configuration not stated) | 1.11
CCN1C(=S)NC(c2cccc(OC)c2)C(C(C)=O)=C1C (configuration not stated) | 1.03
CC(C)CC1=NCCN(C)C2=C1C(c1ccc(Br)cc1)NC2=O (configuration not stated) | 1

SMILES | growth
COC(=O)[C@]1(Cc2ccccc2)NC=C(C(=O)c2ccc(OC)cc2)[C@@H]1c1ccccc1 | 1.08
C=C(C)[C@@H]1CC[C@]2(C(=O)OC)CC[C@]3(C)[C@H](CC[C@@H]4[C@@]5(C)CCC(=O)C(C)(C)[C@@H]5CC[C@]43C)[C@@H]12 | 0.905
CC(C)Cc1nn(-c2ccccc2)c2c1C(c1ccc(F)cc1)NC2=O (configuration not stated) | 1.09
CC(C)[C@@H]1CC[C@]2(C(=O)O)CC[C@]3(C)[C@H](CC[C@@H]4[C@@]5(C)CCC(=O)C(C)(C)[C@@H]5CC[C@]43C)[C@@H]12 | 1.16
C=CCC[C@@H](O)COc1cc2c(cc1C1(c3cc4c(cc3OC[C@H](O)CCC=C)OCO4)C(=O)Nc3ccc(F)cc31)OCO2 | 0.915
O=C1CC2(CCCCC2)CNC(=O)c2cccc(c2)/C=C/C=C\Oc2ccccc2CN1 | 1.03
CC(C)(C)NS(=O)(=O)OCC12C[C@H]3C[C@@H](C1)C[C@@H](C2)C3 | 1.03
C[C@H]1C[C@H]2[C@H](O)C(=O)N[C@@H](Cc3ccccc3)C(=O)N2[C@H]1c1cccc(Br)c1 | 1.26
C=CC[C@]12C[C@@]3(O[C@H](c4ccc(C(F)(F)F)cc4)N=C3C[C@H](c3ccc(OC)cc3)[C@H]1C)N(Cc1ccncc1)C2=O | 0.998
COc1cc(OC)c2c(c1)O[C@@]1(c3ccc(C#N)cc3)[C@H](c3ccccc3)[C@@H](CN(C)C)[C@@H](O)[C@@]21O | 1.21
COc1ccc2c(=O)c3ccccc3oc2c1O | 1.09
COC(=O)c1c(O)c(C)c(OCc2ccccc2)c(C)c1OCc1ccccc1 | 1.01
COc1ccc(Cn2ncc(C)c2N)cc1 | 0.971
C#CCN(C)C(=O)c1nnc(C(=O)OC)c2c1c1ccccc1n2Cc1ccccc1 | 1.28
C[C@H](NC(=O)N1CCc2nc(COc3ccccc3)c3c(c2C1)CO[C@@H](C)C3)c1ccccc1 | 1.21
COc1ccc(Cn2nccc2Nc2cc(O)cc(O)c2C(=O)N2Cc3ccccc3C2)cc1 | 0.999
CC#C/C(O)=C1/C(=O)OCc2c(OCc3ccccc3)cc(OC)cc21 | 1.01
COC(=O)[C@]1(Cc2ccccc2)NC=C(C(=O)c2ccccc2)[C@@H]1c1ccccc1 | 1.04
C=CCC1=CC(O)CCC1=O (configuration not stated) | 1
C[C@H]1C[C@H]2CC(=O)N[C@@H](Cc3ccccc3)C(=O)N2[C@H]1C1CC1 | 0.998
C=CCN1C(=O)C2=C(C(C)=NCC(C)(C)N2)C1c1ccc(F)cc1 (configuration not stated) | 0.997
CCc1cc(N)n(Cc2ccc(OC)cc2)n1 | 1.03
CC1(Cc2occc(=O)c2O)C=Nc2ccccc21 (configuration not stated) | 1.11
COc1ccc(Cn2nc(-c3ccccc3)cc2Nc2cc(O)cc(O)c2C(=O)N(C)CC2CC2)cc1 | 1.12
COc1cc(OC)c2c(c1)OC(Cc1ccc(F)cc1C(F)(F)F)(c1ccc(Br)cc1)C2=O (configuration not stated) | 0.924
COc1cc(OC)c2c(=O)c(O)c(-c3ccc(Br)cc3)[nH]c2c1 | active: 0.0763

SMILES | growth
CCOc1ccc(-n2c(C)c3c(C)nnc(Nc4ccncc4)c3c2C)cc1 | 1.07
CC(C)C1=NCCNC2=C1C(c1ccc(Br)cc1)N(Cc1ccccc1)C2=O (configuration not stated) | 1.05
COc1ccc(N2C(=O)c3[nH]nc(CC(C)C)c3C2c2ccc(OC)nc2)cc1 (configuration not stated) | 1
C=CCN1C(=O)C2=C(C(c3ccccc3)=NCCN2C)C1c1ccc(C)cc1 (configuration not stated) | 1
COC(=O)C1=C(C)N(C)C(=O)N(C(C)=O)C1c1ccccc1 (configuration not stated) | 1.03
C[C@@H]1/C=C/CC(=O)OCc2ccccc2CC(=O)N[C@@H]1c1ccccc1 | 1
COc1ccccc1Cn1nc(C(C)C)c2c1C(=O)NC2c1ccc(C)cc1 (configuration not stated) | 0.97
C#CCC(C)(C)CNC(=O)CC(CNC(=O)c1cccc(/C=N/NS(=O)(=O)c2ccc(C)cc2)c1)c1ccccc1 (configuration not stated) | 1.2
Cc1ccc2c(c1)[C@]1(C(=O)N2C)C2=C(CCCC2=O)Oc2cc(C)oc(=O)c21 | 1.03
Cc1ccc(C2c3c(nn(C)c3-c3ccccc3)C(=O)N2c2ccccc2)cc1 (configuration not stated) | 0.88
COc1ccc(N2C(=O)c3[nH]nc(CC(C)C)c3C2c2cc(F)nc(F)c2)cc1 (configuration not stated) | 0.974
CC(O)c1nnc(C(=O)NCc2ccccc2)c2[nH]c3ccccc3c12 (configuration not stated) | 1.19
COCO[C@@H]1CC[C@H](O)C(C(=O)OC)=C1Oc1cc(O)cc(OC)c1 | 0.991
CC(=O)C1=C(C)N(Cc2ccc(Br)cc2)C(=S)NC1c1cccc(Cl)c1 (configuration not stated) | 0.92
CC1=C[C@@H](COc2ccc(Br)cc2)O[C@@]2(C1)C(=O)N(C)c1ccccc12 | 0.915
COCOc1cc(OC)cc(O)c1C(=O)[C@@H]1CC=C(CCC=C(C)C)C[C@H]1c1cccnc1 | 0.944
O=C(O)/C=C/c1ccc(O)c(O)c1 | 1.09
C#C[C@@H]1C=C[C@H](Oc2ccc(OC)cc2)[C@@H](CO)O1 | 1.05
CCc1ccccc1-n1nc(C(C)C)c2c1C(=O)NC2c1ccc(Br)cc1 (configuration not stated) | 0.931
CC1=C[C@H]2c3c(c(O)c(O)c4oc5cc(O)ccc5c(=O)c34)[C@H](c3cc(O)c(O)c4oc5cc(O)ccc5c(=O)c34)[C@H]2C(C)(C)C1 | 2.22
COc1ccc(N2C(=O)C(Nc3ccc4c(c3)OCO4)=CC2c2ccc3c(c2)OCO3)cc1 (configuration not stated) | 0.942
COC(=O)[C@@H](Cc1ccccc1)N1C[C@@]2(O)CC[C@@H](O)[C@@H](OC)[C@@H]2[C@@](C)(O)[C@@H]1CC=C(C)C | 1.05
COC(=O)[C@]1([C@H]2CCC(=O)O2)CC(=O)c2c(O)c(Cl)cc(Cl)c2O1 | 1.06
Cc1ccc(CCC(=O)/C=C(\O)CCc2ccc(C)cc2)cc1 | 0.987
Cc1cc2c(c(=O)o1)[C@@]1(C(=O)N(C)c3cc(Br)ccc31)C1=C(CCCC1=O)O2 | 1.12
